# Laboratory results: PubChem BioAssay AID588579 (National Center for Advancing Translational Sciences (NCATS), 2011)
# Where “and” joins values, the source holds several entries; their conditions need not be identical. Equal values may be shown once. Among all 400,000 compounds or so, about 2,200 (0.55%) were called active. The inconclusive results got no clear call from the source; some entries with a clear call stand among them for comparison. Calls follow the shape of the dose curve; as a rule, active = well fitted inhibition curve with a large enough effect; inconclusive = small, poorly fitted or top-dose-only effect, or another doubt; inactive = no such curve, though single readings can be large or run the other way. Potencies beside an inconclusive call are fits to weak or partial responses and may not hold up.
# Target: DNA polymerase kappa (Homo sapiens) (UniProt Q9UBT6)
# Sequence of UniProt Q9UBT6 (Q9UBT6 whole entry, looked up): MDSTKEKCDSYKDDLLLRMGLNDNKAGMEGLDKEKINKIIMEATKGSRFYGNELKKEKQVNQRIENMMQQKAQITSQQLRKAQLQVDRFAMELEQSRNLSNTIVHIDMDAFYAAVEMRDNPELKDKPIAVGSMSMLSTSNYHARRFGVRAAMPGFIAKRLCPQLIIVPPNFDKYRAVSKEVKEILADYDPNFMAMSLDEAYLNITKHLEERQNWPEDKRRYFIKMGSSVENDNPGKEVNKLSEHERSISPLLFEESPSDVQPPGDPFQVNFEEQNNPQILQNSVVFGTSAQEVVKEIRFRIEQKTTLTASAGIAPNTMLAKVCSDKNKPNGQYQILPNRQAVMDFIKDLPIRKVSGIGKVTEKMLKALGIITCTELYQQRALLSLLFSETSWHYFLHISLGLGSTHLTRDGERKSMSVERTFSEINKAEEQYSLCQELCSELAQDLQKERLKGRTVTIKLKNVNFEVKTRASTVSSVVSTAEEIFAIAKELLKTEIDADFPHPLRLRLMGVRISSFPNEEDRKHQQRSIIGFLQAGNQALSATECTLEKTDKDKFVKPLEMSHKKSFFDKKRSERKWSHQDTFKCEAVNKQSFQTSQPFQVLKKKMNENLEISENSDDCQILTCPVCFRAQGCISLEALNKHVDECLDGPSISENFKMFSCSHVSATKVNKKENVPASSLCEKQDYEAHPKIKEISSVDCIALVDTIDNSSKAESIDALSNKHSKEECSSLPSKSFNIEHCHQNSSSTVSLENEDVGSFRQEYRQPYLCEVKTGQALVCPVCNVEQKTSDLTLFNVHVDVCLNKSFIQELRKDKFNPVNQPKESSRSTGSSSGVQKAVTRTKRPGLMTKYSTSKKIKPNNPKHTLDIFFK
# Experiment: qHTS for Inhibitors of Polymerase Kappa
# Conditions: purified Pol kappa, fluorescent DNA synthesis assay, 10 min; series mostly up to 107 µM
# Method in brief: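 10 nM Pol kappa was preincubated with compounds for 15 min at room temperature. Reaction started with 50 nM (final) substrate. Fluorescence read kinetically at 0 and 10 min.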
# Potency is read from the fitted curve at half-maximal effect; tags tell the direction and shape of the fitted curve.
row,SMILES,Potency
1,COc1cc(NC(=O)Cn2c(-c3cncs3)nc3ccccc32)cc(OC)c1OC,inactive
2,COCC(C)Nc1ncnc2c1cnn2-c1ccc(C)c(C)c1 (stereo not given),inactive
3,NC(=O)c1ccsc1NC(=O)CSc1nnc(Nc2ccccc2)s1,"inconclusive: 89.1 µM [inhibitor, partial curve, poor fit]"
4,CN(Cc1ccco1)c1cc(-c2ccoc2)ncn1,active: 25.1 µM
5,Cc1sc2nc3c(SC(C)C(=O)O)cc(C(=O)c4ccccc4O)cn3c(=O)c2c1C (stereo not given),inactive
6,CC[N+](C)(C)c1ccc(/C=C/c2ccnc3ccccc23)cc1,"inconclusive: 56.2 µM [inhibitor, partial curve, poor fit]"
7,C=CCn1c(SCC(=O)c2cccs2)nnc1-c1cccc(OC)c1,inactive
8,Cc1cccc(-c2nc(CN3CCCC(C(=O)NCCc4ccc(Cl)cc4)C3)c(C)o2)c1 (stereo not given),inactive
9,CCc1ccc(NS(=O)(=O)c2[nH]ncc2C(=O)OC)cc1,inactive
10,O=S(=O)(c1ccc(Oc2ccc3c(c2)OCO3)c(S(=O)(=O)N2CCOCC2)c1)N1CCOCC1,inactive
11,O=C1Nc2cc(C(=O)NCCCN3CCOCC3)ccc2S/C1=C/c1ccccc1F,inactive
12,CCCCOC(=O)C1=C(C)NC(=O)NC1c1ccc([N+](=O)[O-])s1 (stereo not given),"inconclusive: 100 µM [inhibitor, single point]"
13,O=C1NC(=S)/C(=C\c2ccc(-c3ccccc3Cl)o2)S1,"inconclusive: 56.2 µM [inhibitor, partial curve, poor fit]"
14,O=c1cc(CSc2n[nH]c(-c3ccncc3)n2)nc2sccn12,"inconclusive: 89.1 µM [inhibitor, single point]"
15,CC(C)Sc1oc(-c2ccco2)nc1S(=O)(=O)c1ccc(F)cc1,"inconclusive: 79.4 µM [inhibitor, single point]"
16,CC(=O)OCC1=C(C(=O)O)N2C(=O)C(NC(=O)c3ccc(COc4ccc(Cl)cc4)o3)C2SC1 (stereo not given),"inconclusive: 100 µM [inhibitor, single point]"
17,CCCCN(Cc1nc2ccccc2c(=O)[nH]1)C(=O)c1nn(C)c(=O)c2ccccc12,"inconclusive: 89.1 µM [inhibitor, single point]"
18,C=CCOc1ccc(/C=C\c2nc(O)c([N+](=O)[O-])c(=O)[nH]2)cc1OC,"inconclusive: 56.2 µM [inhibitor, partial curve, poor fit]"
19,CC(=O)Oc1ccccc1C(=O)Nc1ccccc1,inactive
20,CCOC(=O)CN(C(=O)c1snc(C(N)=O)c1N)C(C(=O)NC1CCCCC1)c1ccc(F)cc1 (stereo not given),active: 79.4 µM
21,CCCCNC(=O)c1ccccc1NC(=O)CN(c1ccccc1)S(=O)(=O)N(C)C,"inconclusive: 79.4 µM [inhibitor, partial curve, poor fit]"
22,CCCC(=O)OCCNc1cc(SCc2ccco2)c2nonc2c1[N+](=O)[O-],active: 35.5 µM
23,O=C1Nc2ccc(I)cc2/C1=C/c1cc(Br)c(O)c(Br)c1,"inconclusive: 29.9 µM [inhibitor, single point] and inconclusive: 37.7 µM [inhibitor, single point]"
24,O=C(O)CN1C(=O)/C(=C/c2ccc(SCc3ccccc3)o2)SC1=S,active: 79.4 µM

row,SMILES,Potency
1,CCCCCOC(=O)CSc1nc2sc3c(c2c(=O)n1-c1ccccc1)CC(C)(CC)OC3 (stereo not given),inactive
2,NS(=O)(=O)c1ccc(NC(=O)C2Cc3ccccc3CN2C(=O)c2ccco2)cc1 (stereo not given),active: 79.4 µM
3,C/C(=N/NC(=O)C1CCN(S(=O)(=O)c2ccc(C)cc2)CC1)c1cccc([N+](=O)[O-])c1,"inconclusive: 100 µM [inhibitor, single point]"
4,CSCCC(NC(=O)c1ccco1)C(=O)Nc1ccc(C)cn1 (stereo not given),inactive
5,Cc1c(NC(=O)c2cccc(-c3cc4ccccc4oc3=O)c2)cccc1-c1nc2ncccc2o1,"inconclusive: 56.2 µM [inhibitor, partial curve]"
6,Cc1cc2cc(CNC(=O)c3ccco3)ccc2n1C,"inconclusive: 31.6 µM [inhibitor, full curve, poor fit]"
7,COc1ccc(CN(C#N)c2nc(SC)nc(N(C)C)n2)cc1,"inconclusive: 89.1 µM [inhibitor, single point]"
8,N#C/C(=C\c1ccc[nH]1)C(=O)Nc1ccccc1[N+](=O)[O-],"inconclusive: 89.1 µM [inhibitor, single point]"
9,COc1ccc(OCCCC(=O)OCC(=O)Nc2ncc(Cl)cc2Cl)cc1,inactive
10,O=C(/C=C/c1ccco1)Nc1nc(-c2ccccn2)cs1,active: 31.6 µM
11,C/C(=N/NC(=O)c1cc2ccccc2cc1O)c1ccco1,"inconclusive: 89.1 µM [inhibitor, single point]"
12,Cc1onc(-c2ccccc2Cl)c1C(=O)NCc1ccco1,"inconclusive: 79.4 µM [inhibitor, single point]"
13,CCc1cc(C(=O)/C=C/c2cc3c(cc2C)OCCO3)c(O)cc1O,inactive
14,O=c1c(CCc2ccccc2)nc2cnc(N3CCNCC3)nc2n1Cc1ccc(F)cc1,"inconclusive: 0.0251 µM [inhibitor, full curve, poor fit]"
15,Clc1ccc(-c2nnc(SCc3nc4ccccc4s3)o2)cc1,"inconclusive: 22.4 µM [inhibitor, partial curve, poor fit]"
16,CC(Cc1c[nH]c2ccccc12)C(=O)O (stereo not given),"inconclusive: 89.1 µM [inhibitor, partial curve, poor fit]"
17,NC(=O)N1c2ccccc2CC(=O)c2ccccc21,"inconclusive: 35.5 µM [inhibitor, single point]"
18,COc1ccc2[nH]c(O)c(N=NC(=O)c3ccc(NS(=O)(=O)c4cccs4)cc3)c2c1,active: 79.4 µM
19,Cc1cccc(-c2cc3nc(C)cc(NCCCN(C)C)n3n2)c1,"inconclusive: 79.4 µM [inhibitor, partial curve, poor fit]"
20,COc1ccc2c(c1)c(=O)oc1c(C)c(OCc3cc(C(=O)O)oc3C)ccc12,active: 79.4 µM
21,c1ccc2c(Nc3ccncc3)nc(-c3ccc4c(c3)OCO4)nc2c1,"inconclusive: 39.8 µM [inhibitor, single point]"
22,Oc1ccc(/C=N/n2c(COc3ccccc3)n[nH]c2=S)cc1O,active: 20 µM
23,CCOCCOC(=O)C(C)Oc1ccc(Oc2ncc(C(F)(F)F)cc2Cl)cc1 (stereo not given),inactive
24,Cc1cc(C=C2C(=O)c3ccccc3C2=O)c(C)n1-c1ccc(C(=O)O)cc1,"inconclusive: 89.1 µM [inhibitor, single point]"

row,SMILES,Potency
1,O=C(O)c1cc(C(=O)O)cc(-c2ccc(/C=c3/sc4nc5ccccc5n4c3=O)o2)c1,active: 17.8 µM
2,Oc1c(Br)cc(Br)c(/C=N/n2c(-c3ccccc3)n[nH]c2=S)c1Br,"inconclusive: 89.1 µM [inhibitor, single point]"
3,Cc1cccc(N(CC(=O)NC2CCCC2)C(=O)CCC(=O)Nc2cc(C)on2)c1,inactive
4,COc1cccc(/C=N/Nc2ccccc2C(=O)O)c1O,inactive
5,COc1ccccc1/C=C/c1nc2ccccc2[nH]1,inactive
6,CCCn1c(SCC(=O)N2CCc3ccccc3C2)nc(O)cc1=O,"inconclusive: 56.2 µM [inhibitor, partial curve, poor fit]"
7,Cc1ccnc(NS(=O)(=O)c2ccc(NC(=O)Cc3cccs3)cc2)n1,active: 31.6 µM
8,COc1ccc(S(=O)(=O)NCCSCc2ccco2)cc1Cl,"inconclusive: 100 µM [inhibitor, single point]"
9,CNC(=O)c1c(C)[nH]c(=S)c(C#N)c1-c1ccco1,"inconclusive: 89.1 µM [inhibitor, single point]"
10,O=C(OCC(=O)N1N=C(c2ccc(Cl)cc2)CC1c1ccco1)c1cncc(Br)c1 (stereo not given),"inconclusive: 89.1 µM [inhibitor, partial curve]"
11,O=C(O)C1Nc2c(Cl)cc(Cl)cc2C2C=CCC12 (stereo not given),active: 8.91 µM
12,COc1cc(OC)cc(C(=O)NN(CCC#N)C2=NS(=O)(=O)c3ccccc32)c1,inactive
13,O=C(CSc1nnc(Nc2ccccc2F)s1)NCc1ccco1,"inconclusive: 79.4 µM [inhibitor, partial curve]"
14,CC1CCN(S(=O)(=O)c2ccc(NC(=O)Cc3cccs3)cc2)CC1,"inconclusive: 89.1 µM [inhibitor, single point]"
15,O=C(COC(=O)c1cc(-c2ccccc2Cl)nc2ccccc12)Nc1ncc(C(F)(F)F)cc1Cl,"inconclusive: 89.1 µM [inhibitor, single point]"
16,CC(C)(C)c1ccc(S(=O)(=O)c2cnc(SCC(=O)Nc3ccc4c(c3)OCCO4)[nH]c2=O)cc1,"inconclusive: 89.1 µM [inhibitor, single point]"
17,COc1cc(/C=C/C(=O)OCC(=O)Nc2c(C)n(C)n(-c3ccccc3)c2=O)ccc1O,"inconclusive: 89.1 µM [inhibitor, single point]"
18,COc1cc2c(c(OC)c1OC)C(c1ccc(C)cc1)CC(=O)O2 (stereo not given),"inconclusive: 63.1 µM [inhibitor, partial curve, poor fit]"
19,CCN(CC)S(=O)(=O)c1nnc(NC(=O)c2ccccc2Cl)s1,"inconclusive: 100 µM [inhibitor, single point]"
20,[O-][n+]1c2c(c3c4non(O)c4ccc31)CCCC2,"inconclusive: 100 µM [inhibitor, single point]"
21,Cc1cccc(C(=O)OCC(=O)c2ccc(CC(=O)N3CCOCC3)s2)c1C,active: 79.4 µM
22,CC(=O)Nc1ccc(S(=O)(=O)N(C)CC(=O)OCC(=O)N2CCN(C(=O)c3ccco3)CC2)cc1,"inconclusive: 89.1 µM [inhibitor, single point]"
